# Source: the supplement of paper PMC10338343
# ± gives the standard deviation. The entries are a selection whose mix differs from that of the whole data set.
# Test system: MIWI (PIWIL1) piRISC loaded with L1MC piRNA (30 nt)
# Experiment: pre-steady-state target cleavage rate (min^-1); MIWI and MILI are mouse PIWI proteins and EfPiwi is from a freshwater sponge; tags in brackets are library labels; higher = faster piRNA-guided slicing of the target
# Details: guide: L1MC piRNA 5'p-UAACUAAAUACUAUGCAAGCUGUAGGUCCU; auxiliary factor: 500 nM mouse GTSF1
# Procedure, shortened: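 The method was Cleave-'n-Seq, in which uncleaved targets from a transcribed, DNA-blocked target RNA library were sequenced after exposure to active affinity-purified piRISC carrying one synthetic guide, with or without GTSF1 partner protein. Reactions contained 0.1 nM library, 1 nM piRISC and, where present, 500 nM GTSF1 in HEPES–potassium acetate buffer at 33 °C for 0–8 or 0–960 min. Reads were normalised to depth and to weakly complementary targets, three trials were pooled, and k3 was capped at 0.0001 min^-1. The pre-steady-state cleavage rate came from a burst-and-steady-state fit.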
row,Sequence,pre-steady-state target cleavage rate
1,UCCUGGAUCAGCUUGGAUAGUAUUUAGAAA,0.059 ± 0.016
2,UCCUGGAUGUGCUUGCAUAGUAUAAUGUAA,0.00478 ± 0.0038
3,UCCUGGUACAGCUUGCAUACUAUUUACAAA,0.0733 ± 0.02
4,UCCUGCUACAGCUUGCAAUGUAUUUUCAAA,0.0162 ± 0.0062
5,UCCUGGUACAGCUUGCAUAGAUAUUUAGUUA,0.00536 ± 0.0054
6,UGGACCUACAGCAACCAUAGUAUUUAGUUA,0.225 ± 0.026
7,UCCUGGAUGUCCUUGCUUAGUAUUUAGUAA,0.00726 ± 0.004
8,UCCUGGUACAGCUUGCAUAGUAUAUUCAAA,0.178 ± 0.054
9,UCGACCUACAGCUAGCAUAGUAUUUUCAAA,0.41 ± 0.051
10,UCCUGGAUGUCCUUGCAUUGUAUUUUGUUA,0.00605 ± 0.0049
11,UCCUGGAUGUCGUUGCAUAGUAUUUACGUUA,0.00982 ± 0.0038
12,UCCACCUACAGCUUGCUAUAGUAUUUAGUUA,0.0517 ± 0.016
13,UCCUCCUACAGCUUGCAAUGUAUUUUCAAA,0.0383 ± 0.01
14,UCCUGGAUGUCCUAGCAUAGUAUUUAGUUA,0.0213 ± 0.0065
15,UGGACCUACAGCUUGCAUUCUAUUUUCAAA,0.0045 ± 0.0031
16,UCGACCUACAGCUUGCAUUGUAUUUUCAAA,0.128 ± 0.024
17,UCGACCUACAGCUUGCAUAGUAUAAUCAAA,0.386 ± 0.062
18,UCCUCCUACAGCUUCGAUAGUAUUUAGAAA,0.0755 ± 0.019
19,UGGACCUACAGCUUGCAUAUGUAUUUAGUUA,0.00421 ± 0.0041

row,Sequence,pre-steady-state target cleavage rate
1,UCCACCUACAGCUUGCAUAGUAUAAAGUAA,0.278 ± 0.04
2,UCCUCCUACAGCUUGCAUAGUAUAUUCAAA,0.271 ± 0.044
3,UCCUGCUACAGCUUGCAAUGUAUUUAGAAA,0.0959 ± 0.021
4,UCCUGGUACAGCUUGCAUAGUUUUUACAAA,0.0727 ± 0.021
5,UCCUGGAUGUCGAACGUUUGUAUAUAGUUA,< 0.0001
6,UCCUGGAACAGCUUGCAUAGUUUUUUCAAA,0.0225 ± 0.0083
7,UCCACCUACAGGAAGCAUAGUAUUUAGUAA,0.474 ± 0.047
8,UCCUGGAUGUCCUUGCAUAGUAUUUAGCUA,0.0193 ± 0.0067
9,UCCUGGAUGUCGAACGAUAGUGUUUAGUUA,< 0.0001
10,UCCACCUACAGCUUGCAUAGUAUAUAGAAA,0.289 ± 0.055
11,UCCUGGAUGAGCUUCCAUAGUAUUUAGAUA,0.00762 ± 0.0045
12,UCGACCUACAGGAAGCAUAGUAUUUUCAAA,0.0543 ± 0.015
13,UCCUGGAACAGCUUGCUUAGUAUUUUCAAA,0.108 ± 0.022
14,UCCUGCUACAGCUUGCUAUGUAUUUAGAAA,0.0154 ± 0.0069
15,UCCUGGAUGUGCUUGCAUAGUCAUUUAGUUA,0.00413 ± 0.0039
16,UGGACCUACAGCUUGCAUAGUAUAUAGAAA,0.268 ± 0.046
17,UCCUGCUACAGCUUGCAUAGUAAUUUCAAA,0.278 ± 0.074
18,UCCACCUACAGCUUGCAUUCUAUUUAGAAA,0.0473 ± 0.015
